Assay results from the supplement of paper PMC11741623.
Some of the results follow. Interaction screen of human proteins with wild-type SARS-CoV-2 proteins by split-DHFR complementation in yeast, 1 µg/mL methotrexate. Value = fitness of the pair (three or more lineages) minus that of the viral protein without a human partner, on a scale set by negative (0) and fused positive (1) controls, mean of up to three cultures; higher = more likely to interact. Active = false discovery rate below 0.05 (one-sided t-test) in at least one culture. Nearly all pairs are not hits, and differences among them are mostly noise (correlation between cultures about 0.3); most hits were seen in one culture only. Human sequences are the Swiss-Prot entries looked up by gene name; the clone may be another isoform. NSP2 values were corrected by the authors for a growth advantage. Listed are human proteins with a hit and a random twelfth of the others.

B1: PAK1, Q13153 (protein)
chain: MSNNGLDIQDKPPAPPMRNTSTMIGAGSKDAGTLNHGSKPLPPNPEEKKKKDRFYRSILPGDKTNKKKEKERPEISLPSDFEHTIHVGFDAVTGEFTGMPEQWARLLQTSNITKSEQKKNPQAVLDVLEFYNSKKTSNSQKYMSFTDKSAEDYNSSNALNVKAVSETPAVPPVSEDEDDDDDDATPPPVIAPRPEHTKSVYTRSVIEPLPVTPTRDVATSPISPTENNTTPPDALTRNTEKQKKKPKMSDEEILEKLRSIVSVGDPKKKYTRFEKIGQGASGTVYTAMDVATGQEVAIKQMNLQQQPKKELIINEILVMRENKNPNIVNYLDSYLVGDELWVVMEYLAGGSLTDVVTETCMDEGQIAAVCRECLQALEFLHSNQVIHRDIKSDNILLGMDGSVKLTDFGFCAQITPEQSKRSTMVGTPYWMAPEVVTRKAYGPKVDIWSLGIMAIEMIEGEPPYLNENPLRALYLIATNGTPELQNPEKLSAIFRDFLNRCLEMDVEKRGSAKELLQHQFLKIAKPLSSLTPLIAAAKEATKNNH
B2: C16orf3, O95177 (protein)
chain: MKLSSAAGQESPGHPHPSPPAWTLKKPSESVAQRAMCSARACPVACPVGCPAACPVGCPIACPVSCPVACPVGCPVGSMATAPQGLSPQEWEADRETGSSSHAGTTQCSIHSPSSSSRHLSRTQT

Molecular target: SARS-CoV-2 E
Experiment: yeast fitness gain over the viral ORF with no human partner (scaled fitness); higher = more likely to interact
Method: (§1)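 Split mouse DHFR complementation in pooled diploid yeast: human ORFeome clones carry one fragment and viral ORFs the other; barcoded lineages compete in 1 µg/mL methotrexate and fitness is read by barcode sequencing in up to three cultures.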

| Binder | yeast fitness gain |
| --- | --- |
| B1 | inactive: -0.0252 |
| B2 | inactive: -0.0596 |

Molecular target: SARS-CoV-2 M
Experiment: as above
Method: as §1

| Binder | yeast fitness gain |
| --- | --- |
| B1 | inactive: -0.0294 |
| B2 | inactive: -0.000473 |

Molecular target: SARS-CoV-2 NSP1
Experiment: as above
Method: as §1

| Binder | yeast fitness gain |
| --- | --- |
| B1 | inactive: 0.0281 |
| B2 | inactive: -0.00687 |

Molecular target: SARS-CoV-2 NSP10
Experiment: as above
Method: as §1

| Binder | yeast fitness gain |
| --- | --- |
| B1 | inactive: 0.00989 |
| B2 | inactive: 0.00186 |

Molecular target: SARS-CoV-2 NSP12
Experiment: as above
Method: as §1

| Binder | yeast fitness gain |
| --- | --- |
| B1 | inactive: 0.012 |
| B2 | inactive: 0.0101 |

Molecular target: SARS-CoV-2 NSP13
Experiment: as above
Method: as §1

| Binder | yeast fitness gain |
| --- | --- |
| B1 | inactive: -0.0486 |
| B2 | inactive: -0.0117 |

Molecular target: SARS-CoV-2 NSP15
Experiment: as above
Method: as §1

| Binder | yeast fitness gain |
| --- | --- |
| B1 | inactive: 0.0268 |
| B2 | inactive: -0.0163 |

Molecular target: SARS-CoV-2 NSP16
Experiment: as above
Method: as §1

| Binder | yeast fitness gain |
| --- | --- |
| B1 | inactive: -0.288 |
| B2 | inactive: 0.0324 |

Molecular target: SARS-CoV-2 NSP2
Experiment: as above
Method: as §1

| Binder | yeast fitness gain |
| --- | --- |
| B1 | active: 0.558 |
| B2 | inactive: -0.14 |

Molecular target: SARS-CoV-2 NSP5
Experiment: as above
Method: as §1

| Binder | yeast fitness gain |
| --- | --- |
| B1 | inactive: -0.0728 |
| B2 | inactive: -0.0443 |

Molecular target: SARS-CoV-2 NSP6
Experiment: as above
Method: as §1

| Binder | yeast fitness gain |
| --- | --- |
| B1 | inactive: -0.148 |
| B2 | inactive: -0.0828 |

Molecular target: SARS-CoV-2 NSP7
Experiment: as above
Method: as §1

| Binder | yeast fitness gain |
| --- | --- |
| B1 | inactive: -0.183 |
| B2 | inactive: -0.153 |

Molecular target: SARS-CoV-2 NSP8
Experiment: as above
Method: as §1

| Binder | yeast fitness gain |
| --- | --- |
| B1 | inactive: 0.00693 |
| B2 | inactive: 0.00468 |

Molecular target: SARS-CoV-2 NSP9
Experiment: as above
Method: as §1

| Binder | yeast fitness gain |
| --- | --- |
| B1 | inactive: 0.13 |
| B2 | inactive: -0.0836 |

Molecular target: SARS-CoV-2 ORF10
Experiment: as above
Method: as §1

| Binder | yeast fitness gain |
| --- | --- |
| B1 | inactive: -0.222 |
| B2 | inactive: 0.0266 |

Molecular target: SARS-CoV-2 ORF3A
Experiment: as above
Method: as §1

| Binder | yeast fitness gain |
| --- | --- |
| B1 | inactive: -0.177 |
| B2 | inactive: -0.108 |

Molecular target: SARS-CoV-2 ORF3B
Experiment: as above
Method: as §1

| Binder | yeast fitness gain |
| --- | --- |
| B1 | inactive: 0.0491 |
| B2 | inactive: 0.0405 |

Molecular target: SARS-CoV-2 ORF6
Experiment: as above
Method: as §1

| Binder | yeast fitness gain |
| --- | --- |
| B1 | inactive: 0.0382 |
| B2 | inactive: 0.0274 |

Molecular target: SARS-CoV-2 ORF7A
Experiment: as above
Method: as §1

| Binder | yeast fitness gain |
| --- | --- |
| B1 | inactive: 0.103 |
| B2 | inactive: 0.0811 |

Molecular target: SARS-CoV-2 ORF7B
Experiment: as above
Method: as §1

| Binder | yeast fitness gain |
| --- | --- |
| B1 | inactive: -0.673 |
| B2 | inactive: -0.000328 |

Molecular target: SARS-CoV-2 ORF8
Experiment: as above
Method: as §1

| Binder | yeast fitness gain |
| --- | --- |
| B1 | inactive: 0.03 |
| B2 | inactive: -0.00276 |

Molecular target: SARS-CoV-2 ORF9B
Experiment: as above
Method: as §1

| Binder | yeast fitness gain |
| --- | --- |
| B1 | inactive: -0.00448 |
| B2 | inactive: -0.00111 |

Molecular target: SARS-CoV-2 ORF9Bwu (the 73-codon ORF)
Experiment: as above
Method: as §1

| Binder | yeast fitness gain |
| --- | --- |
| B1 | inactive: -0.0487 |
| B2 | inactive: 0.000286 |

Molecular target: SARS-CoV-2 S
Experiment: as above
Method: as §1

| Binder | yeast fitness gain |
| --- | --- |
| B1 | inactive: -0.0237 |
| B2 | inactive: 0.0404 |

Molecular target: SARS-CoV-2 N
Experiment: as above
Method: as §1

| Binder | yeast fitness gain |
| --- | --- |
| B2 | inactive: 0.0398 |

Molecular target: SARS-CoV-2 NSP14
Experiment: as above
Method: as §1

| Binder | yeast fitness gain |
| --- | --- |
| B2 | inactive: -0.0275 |

Molecular target: SARS-CoV-2 NSP4
Experiment: as above
Method: as §1

| Binder | yeast fitness gain |
| --- | --- |
| B2 | inactive: -0.0218 |
